Experimental data taken from the antibiotic and cytotoxicity screens of Wong et al. (2023).
The other results are listed elsewhere or left out.

What was measured:
S. aureus RN4220 = assay: growth inhibition call (relative growth <= 0.2); settings: 50 µM
HSkMC = human skeletal muscle cells; assay: cytotoxicity call (relative viability < 0.9); settings: 10 µM
HepG2 = assay: cytotoxicity call (relative viability < 0.9); settings: 10 µM

Row | Structure (SMILES) | growth inhibition call (S. aureus RN4220) | cytotoxicity call (HSkMC) | cytotoxicity call (HepG2)
1 | CC1(C)CCC2=C(O1)C(=O)c1ccccc1C2=O [alpha-LAPACHONE] | inactive | – | –
2 | C[C@@H]1CN([C@@H](C)CO)C(=O)c2cc(NS(=O)(=O)c3ccccc3)ccc2O[C@H]1CN(C)S(C)(=O)=O | inactive | inactive | inactive
3 | Oc1cc(O)c2c(c1)OC(c1ccc(O)c(O)c1)C(O)C2 (stereo not given) [CIANIDANOL [+-catechin] ] | – | inactive | inactive
4 | COc1ccc(S(=O)(=O)N(C)C[C@@H]2Oc3ccc(NC(=O)Cn4cnnn4)cc3C(=O)N([C@H](C)CO)C[C@@H]2C)cc1 | inactive | inactive | inactive
5 | C[C@@H]1CCCCO[C@H](CN(C)C(=O)Nc2ccc3c(c2)OCO3)[C@@H](C)CN([C@H](C)CO)C(=O)c2cc(NC(=O)NC3CCCCC3)ccc2O1 | inactive | inactive | inactive
6 | O=C(c1ccccc1)c1ccccc1 | inactive | – | –
7 | Cc1cc(C(=O)Nc2cccc3c2O[C@H](CN(C)S(=O)(=O)c2ccc(F)cc2)[C@H](C)CN([C@H](C)CO)C3=O)n(C)n1 | inactive | inactive | inactive
8 | CCCCCOc1ccc(-c2ccc(-c3ccc(C(=O)N[C@H]4C[C@@H](O)[C@@H](O)NC(=O)[C@@H]5[C@@H](O)[C@@H](C)CN5C(=O)[C@H]([C@@H](C)O)NC(=O)[C@H]([C@H](O)[C@@H](O)c5ccc(O)cc5)NC(=O)[C@@H]5C[C@@H](O)CN5C(=O)[C@H]([C@@H](C)O)NC4=O)cc3)cc2)cc1 | inactive | – | active
9 | COc1ccc(-c2cnc3c(c2)C(=O)N([C@H](C)CO)C[C@H](C)[C@H](CN(C)S(=O)(=O)c2cccc(F)c2)O3)cc1 | inactive | inactive | inactive
10 | CC(C)=CCCC(C)=CCCC(C)=CCO [trans,trans-FARNESOL] | inactive | – | –
11 | CC(C)(C)CC(C)(C)c1ccc(OCCOCC[N+](C)(C)Cc2ccccc2)cc1.[Cl-] | active | – | –
12 | O=C(O)C1=C[C@@H](O)[C@@H](O)[C@H](O)C1 | inactive | – | –
13 | CCCNC(=O)C[C@@H]1CC[C@H]2[C@H](COc3ccc(NS(=O)(=O)c4ccccc4C)cc3C(=O)N2C)O1 | inactive | inactive | inactive
14 | Cc1c(C(=O)NN2CCCCC2)nn(-c2ccc(Cl)cc2Cl)c1-c1ccc(I)cc1 | inactive | – | –
15 | CC1(C)C(=O)C2CC3(O)C4=CC(=O)OC(c5ccoc5)C4(C)CCC3C(C)(C2=O)C1CC(=O)O (stereo not given) | inactive | inactive | inactive
16 | O=C(O)C1=C[C@@H](O)[C@H](O)[C@H](O)C1 | inactive | – | –
17 | Cc1ccccc1S(=O)(=O)N1C[C@@H](O)COC[C@H]2O[C@H](CC(=O)N3CCC(Cc4ccccc4)CC3)CC[C@@H]21 | inactive | inactive | active
